# Experimental data: PubChem BioAssay (Tox21)
# Several values for one entry are separate records, joined by “and”; a condition that tells them apart may be missing. Identical values can stand only once. This list was built around the results that the source calls inconclusive (neither active nor inactive); the mix of calls is not that of the screen. For some assays here: Where the call is inconclusive, the potency comes from a doubtful curve fit. Activity calls are given as the source filed them. Unless noted, calls come from the whole dose curve.
# Assays:
# [1] = target: Peroxisome proliferator-activated receptor gamma (Homo sapiens) (UniProt P37231); test: qHTS assay to identify small molecule agonists of the peroxisome proliferator-activated receptor gamma (PPARg) signaling pathway (AID 743094; active = well fitted activation curve with a large enough effect in the signal ratio in the repeat runs, not every such curve was filed as active; inconclusive = weak or mixed curves, or effect the other way; inactive = no such curve, though single readings can be large or run the other way; the % refers to the signal ratio; note: potency is the fitted concentration of half-maximal effect; for activation: % is set by controls: 0 for no effect and ±100 for the full control effect); conditions: HEK293H PPARg-UAS-bla, beta-lactamase FRET ratio, 17 h; activation: at 57 µM (top of the series) unless noted
# UniProt P37231, sequence (P37231 whole entry, looked up): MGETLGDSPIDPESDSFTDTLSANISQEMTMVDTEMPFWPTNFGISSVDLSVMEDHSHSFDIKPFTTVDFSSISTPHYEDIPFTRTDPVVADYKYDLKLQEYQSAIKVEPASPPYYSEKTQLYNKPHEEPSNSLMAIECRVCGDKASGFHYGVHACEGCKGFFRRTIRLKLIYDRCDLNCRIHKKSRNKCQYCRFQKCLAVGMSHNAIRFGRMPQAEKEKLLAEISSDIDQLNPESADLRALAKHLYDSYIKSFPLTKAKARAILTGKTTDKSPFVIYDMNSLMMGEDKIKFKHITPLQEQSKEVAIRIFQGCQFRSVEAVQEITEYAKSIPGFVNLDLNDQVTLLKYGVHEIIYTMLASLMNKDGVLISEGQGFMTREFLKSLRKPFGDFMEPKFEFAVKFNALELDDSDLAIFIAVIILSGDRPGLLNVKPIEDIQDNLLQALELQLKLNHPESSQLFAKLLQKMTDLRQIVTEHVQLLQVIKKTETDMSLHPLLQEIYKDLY
# In short: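 Beta-lactamase FRET fluorescence was the read-out after a 1 h room-temperature substrate step, following 17 h compound treatment at 37C of HEK293H cells expressing a UAS-driven bla reporter responsive to PPARg.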
# [2] = target: Peroxisome proliferator-activated receptor gamma (Homo sapiens) (UniProt P37231); test: qHTS assay to identify small molecule antagonists of the peroxisome proliferator-activated receptor gamma (PPARg) signaling pathway (AID 743191); conditions: HEK293H PPARg-UAS-bla, beta-lactamase ratio, antagonist, 17 h; ratio activity, negative = inhibition: at 62.6 µM (top of the series) unless noted; note: nearly all actives have a fitted effect of over 30% in size; note: potency is the fitted concentration of half-maximal effect; for ratio activity, negative = inhibition: % is set by controls: 0 for no effect and ±100 for the full control effect
# In short: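 Beta-lactamase reporter under UAS control in HEK293H PPARg-bla cells; compound treatment 17 h at 37C. Read-out: fluorescence intensity after 1 h room-temperature incubation with LiveBLAzer B/G FRET substrate.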
# [3] = qHTS assay to identify small molecule agonists of the peroxisome proliferator-activated receptor delta (PPARd) signaling pathway - cell viability counter screen (AID 743211; active = well fitted curve in the direction sought with a large enough effect in the repeat runs; inconclusive = weak or mixed curves; inactive = no such curve, though single readings can be large; an effect the other way counts as inactive or inconclusive; note: nearly all actives have a fitted effect of over 55% in size; note: potency is the fitted concentration of half-maximal effect); conditions: PPARd-bla HEK293H viability, CellTiter-Glo luminescence, 17 h; activity change, negative = cytotoxicity: at 62.6 µM (top of the series)
# In short: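 Read-out: CellTiter-Glo luminescence, 30 min RT, measured in the same wells as the beta-lactamase reporter. Cells: GeneBLAzer PPAR delta UAS-bla HEK293H, 3000 cells/well, compound exposure 17 h at 37C.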
# [4] = target: Peroxisome proliferator-activated receptor delta (Homo sapiens) (UniProt Q03181); test: qHTS assay to identify small molecule antagonists of the peroxisome proliferator-activated receptor delta (PPARd) signaling pathway (AID 743215; active = well fitted inhibition curve with a large enough effect in the signal ratio in the repeat runs, not every such curve was filed as active; inconclusive = weak or mixed curves, or effect the other way; inactive = no such curve, though single readings can be large or run the other way; the % refers to the signal ratio;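 note: cells stimulated with agonist L165041 at 300 nM final during compound exposure; % is set by controls: 0 for no effect and ±100 for the full control effect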); conditions: HEK293H PPARd-UAS-bla, beta-lactamase FRET ratio, antagonist, 17 h; ratio activity, negative = inhibition: at 62 µM (top of the series) unless noted
# UniProt Q03181, sequence (Q03181 whole entry, looked up): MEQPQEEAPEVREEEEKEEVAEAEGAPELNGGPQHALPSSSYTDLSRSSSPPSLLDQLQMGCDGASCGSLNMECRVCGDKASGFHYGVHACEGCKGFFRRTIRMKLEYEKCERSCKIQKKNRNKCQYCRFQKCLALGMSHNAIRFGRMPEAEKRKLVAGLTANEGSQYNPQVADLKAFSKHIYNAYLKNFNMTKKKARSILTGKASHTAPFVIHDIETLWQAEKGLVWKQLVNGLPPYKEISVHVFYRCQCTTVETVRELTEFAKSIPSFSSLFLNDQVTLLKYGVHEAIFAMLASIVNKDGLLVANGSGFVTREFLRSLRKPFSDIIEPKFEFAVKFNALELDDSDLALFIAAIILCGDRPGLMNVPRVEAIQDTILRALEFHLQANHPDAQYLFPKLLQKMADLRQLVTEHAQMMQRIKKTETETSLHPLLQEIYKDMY
# In short: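 Read-out is beta-lactamase FRET fluorescence, measured 2 h after substrate addition at room temperature. Beforehand, UAS-bla HEK293H cells carrying the PPARd reporter were exposed to compounds with L165041 at 300 nM final for 17 h at 37 C.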
# [5] = target: Vitamin D3 receptor (Homo sapiens) (UniProt P11473); test: qHTS assay to identify small molecule antagonists of the vitamin D receptor (VDR) signaling pathway (AID 743223; active = well fitted inhibition curve with a large enough effect in the signal ratio in the repeat runs, not every such curve was filed as active; inconclusive = weak or mixed curves, or effect the other way; inactive = no such curve, though single readings can be large or run the other way; the % refers to the signal ratio; note: potency is the fitted concentration of half-maximal effect); conditions: VDR-UAS-bla HEK293T, beta-lactamase FRET ratio, 16 h; activity change, negative = inhibition: at 61 µM (top of the series) unless noted
# UniProt P11473, sequence (P11473 whole entry, looked up): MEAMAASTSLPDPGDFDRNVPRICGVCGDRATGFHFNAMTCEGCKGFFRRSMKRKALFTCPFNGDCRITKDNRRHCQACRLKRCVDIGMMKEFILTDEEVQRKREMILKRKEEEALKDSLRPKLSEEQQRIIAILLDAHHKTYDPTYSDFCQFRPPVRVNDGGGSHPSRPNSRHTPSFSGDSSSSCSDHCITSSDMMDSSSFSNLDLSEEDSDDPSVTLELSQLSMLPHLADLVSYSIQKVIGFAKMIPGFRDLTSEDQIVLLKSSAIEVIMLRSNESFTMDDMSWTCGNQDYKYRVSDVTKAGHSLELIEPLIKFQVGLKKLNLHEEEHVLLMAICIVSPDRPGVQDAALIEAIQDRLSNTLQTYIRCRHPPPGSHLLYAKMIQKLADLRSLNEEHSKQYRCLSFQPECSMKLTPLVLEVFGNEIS
# In short: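 Beta-lactamase reporter read-out: FRET substrate fluorescence after 2 h at room temperature, following 16 h exposure of VDR-bla cells to test compound plus 3 nM (final) 1alpha,25-dihydroxyvitamin D3 agonist at 37C.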
# [6] = qHTS assay for small molecule agonists of the antioxidant response element (ARE) signaling pathway (AID 743202; active = well fitted activation curve with a large enough effect in the signal ratio in the repeat runs, not every such curve was filed as active; inconclusive = weak or mixed curves, or effect the other way; inactive = no such curve, though single readings can be large or run the other way; the % refers to the signal ratio; note: potency is the fitted concentration of half-maximal effect); conditions: HepG2 ARE-bla reporter, beta-lactamase FRET, 16 h; activation: at 73.3 µM (top of the series) unless noted
# In short: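 An ARE-responsive beta-lactamase gene stably integrated in HepG2 cells serves as reporter. After 5 h plating and 16 h compound incubation at 37 C, fluorescence of the B/G FRET substrate was measured.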
# [7] = qHTS assay for small molecule activators of the heat shock response signaling pathway - cell viability counter screen (AID 743209; active = well fitted curve in the direction sought with a large enough effect in the repeat runs; inconclusive = weak or mixed curves; inactive = no such curve, though single readings can be large; an effect the other way counts as inactive or inconclusive; note: potency is the fitted concentration of half-maximal effect; nearly all actives have a fitted effect of over 50% in size); conditions: HSE-bla HeLa viability, CellTiter-Glo luminescence, 5 h; activity change, negative = cytotoxicity: at 62.6 µM (top of the series)
# In short: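 Luminescence from CellTiter-Glo, added after the beta-lactamase FRET read, gave the viability signal. Cells were HSE-bla HeLa treated with DMSO-dissolved compounds for 5 h at 37 C following overnight plating.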
# [8] = target: Vitamin D3 receptor (Homo sapiens) (UniProt P11473); test: qHTS assay to identify small molecule agonists of the vitamin D receptor (VDR) signaling pathway (AID 743222); conditions: HEK293T VDR-UAS-bla, beta-lactamase FRET ratio, 16 h; activation: at 63.5 µM (top of the series) unless noted; note: potency is the fitted concentration of half-maximal effect
# In short: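 VDR-bla cells, 2,000/well; 4 h preincubation 37C; cpd (DMSO) 16 h; LiveBLAzer B/G substrate 2 h RT; fluorescence intensity read.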
# [9] = qHTS assay for small molecule activators of the heat shock response signaling pathway (AID 743210; active = well fitted activation curve with a large enough effect in the signal ratio in the repeat runs, with a control signal flat, not every such curve was filed as active; inconclusive = weak or mixed curves; the % refers to the signal ratio; note: potency is the fitted concentration of half-maximal effect); conditions: HeLa HSE-bla reporter, beta-lactamase ratio, 5 h; activation: at 62.6 µM (top of the series)
# In short: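 In HSE-bla HeLa cells, 5 h compound incubation (37 C) precedes addition of LiveBLAzer B/G substrate; after 2.5 h at room temperature, fluorescence intensity indicates reporter induction.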
# [10] = target: Peroxisome proliferator-activated receptor delta (Homo sapiens) (UniProt Q03181); test: qHTS assay to identify small molecule agonists of the peroxisome proliferator-activated receptor delta (PPARd) signaling pathway (AID 743212); conditions: HEK293H PPARd-UAS-bla, beta-lactamase FRET ratio, 17 h; activation: at 62.6 µM (top of the series) unless noted; note: potency is the fitted concentration of half-maximal effect
# In short: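 HEK293H UAS-bla reporter cells, human PPARd system; compounds delivered in DMSO after 5 h plating, then at 37 C. Beta-lactamase FRET read, 2 h RT substrate step.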
# [11] = qHTS assay to identify small molecule agonists of the farnesoid-X-receptor (FXR) signaling pathway - cell viability counter screen (AID 743218; active = well fitted curve in the direction sought with a large enough effect in the repeat runs; inconclusive = weak or mixed curves; inactive = no such curve, though single readings can be large; an effect the other way counts as inactive or inconclusive; note: nearly all actives have a fitted effect of over 45% in size; note: potency is the fitted concentration of half-maximal effect); conditions: FXR-bla HEK293T viability, CellTiter-Glo luminescence, 16 h; viability change, negative = cytotoxic: at 62.6 µM (top of the series) unless noted
# In short: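 HEK 293T FXR-bla cells; 5 h pre-incubation, 16 h compound exposure at 37 C; LiveBLAzer substrate 2 h RT, then CellTiter-Glo 30 min RT, luminescence.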
# [12] = target: Bile acid receptor (Homo sapiens) (UniProt Q96RI1); test: qHTS assay to identify small molecule agonists of the farnesoid-X-receptor (FXR) signaling pathway (AID 743220; active = well fitted activation curve with a large enough effect in the signal ratio in the repeat runs, not every such curve was filed as active; inconclusive = weak or mixed curves, or effect the other way; the % refers to the signal ratio; note: potency is the fitted concentration of half-maximal effect); conditions: HEK293T FXR-UAS-bla, beta-lactamase FRET ratio, 16 h; activation: at 62.6 µM (top of the series) unless noted
# UniProt Q96RI1, sequence (Q96RI1 whole entry, looked up): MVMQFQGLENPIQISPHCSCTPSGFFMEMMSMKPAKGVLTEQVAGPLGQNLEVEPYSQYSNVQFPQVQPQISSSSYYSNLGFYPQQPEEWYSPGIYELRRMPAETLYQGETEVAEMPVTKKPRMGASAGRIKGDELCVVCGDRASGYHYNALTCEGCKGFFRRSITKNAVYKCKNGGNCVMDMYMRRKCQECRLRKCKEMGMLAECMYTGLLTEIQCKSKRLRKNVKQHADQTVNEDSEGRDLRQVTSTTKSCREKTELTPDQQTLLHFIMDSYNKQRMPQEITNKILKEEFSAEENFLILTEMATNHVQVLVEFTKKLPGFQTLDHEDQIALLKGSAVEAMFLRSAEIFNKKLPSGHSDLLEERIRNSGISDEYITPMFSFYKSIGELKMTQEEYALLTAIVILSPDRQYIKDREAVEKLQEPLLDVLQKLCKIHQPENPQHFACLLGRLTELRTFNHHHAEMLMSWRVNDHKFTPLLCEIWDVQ
# In short: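 Beta-lactamase reporter under UAS control in GeneBLAzer FXR HEK 293T cells (5000/well) measured with LiveBLAzer FRET substrate after 2 h at room temperature. Compound exposure lasted 16 h at 37C.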
# [13] = qHTS assay to identify small molecule antagonists of the peroxisome proliferator-activated receptor delta (PPARd) signaling pathway - cell viability counter screen (AID 743213; active = well fitted curve in the direction sought with a large enough effect in the repeat runs; inconclusive = weak or mixed curves; inactive = no such curve, though single readings can be large; an effect the other way counts as inactive or inconclusive; note: nearly all actives have a fitted effect of over 50% in size; note: potency is the fitted concentration of half-maximal effect); conditions: PPARd-bla HEK293H viability, CellTiter-Glo luminescence, 17 h; viability change, negative = cytotoxic: at 62 µM (top of the series) unless noted
# In short: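 Same-well viability: cells pre-incubated 5 h, dosed with compound plus 300 nM L165041, kept 17 h at 37 C, FRET substrate 2 h RT, then CellTiter-Glo 30 min RT and luminescence.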
# [14] = target: Bile acid receptor (Homo sapiens) (UniProt Q96RI1); test: qHTS assay to identify small molecule antagonists of the farnesoid-X-receptor (FXR) signaling pathway (AID 743217; active = well fitted inhibition curve with a large enough effect in the signal ratio in the repeat runs, not every such curve was filed as active; inconclusive = weak or mixed curves, or effect the other way; inactive = no such curve, though single readings can be large or run the other way; the % refers to the signal ratio; note: % is set by controls: 0 for no effect and ±100 for the full control effect); conditions: HEK293T FXR-UAS-bla, beta-lactamase ratio, CDCA-stimulated, 16 h; activity change, negative = inhibition: at 62.6 µM (top of the series) unless noted
# In short: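 HEK 293T FXR-UAS-bla, 5000 cells/well; compound + CDCA 50 uM final; 16 h, 37 °C; B/G FRET substrate 2 h RT; fluorescence.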
# Tags give direction and shape of the fitted curve or compound fluorescence and quenching.
compound,measurement,setting,value
CC(=O)OCC(=O)[C@@]1(O)[C@H](C)C[C@H]2[C@@H]3CCC4=CC(=O)C=C[C@]4(C)[C@@]3(F)[C@@H](O)C[C@@]21C,activation,[1],inconclusive: -13.2%
same,"ratio activity, negative = inhibition",[2],inconclusive: 4.07%
same,Potency,[3],inactive
same,"ratio activity, negative = inhibition",[4],inconclusive: 4.36%
same,"activity change, negative = inhibition",[5],inconclusive: 17.1%
CO[Si](OC)(OC)c1ccccc1,Potency,[1],inactive
same,"ratio activity, negative = inhibition",[2],inconclusive: 0.129%
same,activation,[6],inconclusive: -25.8%
same,Potency,[7],"inconclusive: 61.6 µM [rising, partial curve, poor fit]"
same,activation,[8],inconclusive: 18.2%
O=C(OCC(COC(=O)c1ccccc1)(COC(=O)c1ccccc1)COC(=O)c1ccccc1)c1ccccc1,Potency,[1],"inconclusive: 43.6 µM [cytotoxic, partial curve]"
same,Potency,[2],"inconclusive: 27.5 µM [cytotoxic, partial curve]"
same,Potency,[6],"inconclusive: 54.4 µM [falling, partial curve]"
same,Potency,[9],inconclusive: 17.3 µM
same,Potency,[3],inactive
same,Potency,[10],"inconclusive: 19.5 µM [falling, partial curve]"
Brc1c2ccccc2c(Br)c2ccccc12,Potency,[1],active: 1.98 µM
same,Potency,[2],inconclusive: 2.22 µM [activator]
same,Potency,[6],"inconclusive: 2.2 µM [rising, partial curve]"
same,Potency,[9],inconclusive: 2.22 µM [activator]
same,Potency,[10],active: 1.98 µM
same,Potency,[11],"inconclusive: 0.0442 µM [cytotoxic, full curve, poor fit]"
same,Potency,[12],inconclusive: 2.22 µM [activator]
CCN(CC)CCSC(=O)C(c1ccccc1)c1ccccc1,Potency,[1],"inconclusive: 23.9 µM [activator] and inconclusive: 26.8 µM [activator, partial curve]"
same,"ratio activity, negative = inhibition",[2],inconclusive: 28.1%
same,Potency,[9],inconclusive: 13.9 µM
same,Potency,[3],"inconclusive: 33.5 µM [cytotoxic, partial curve, poor fit]"
same,Potency,[13],"inconclusive: 1.19 µM [cytotoxic, single point]"
same,"activity change, negative = inhibition",[14],inconclusive: 47.3%
same,Potency,[11],"inconclusive: 33.5 µM [cytotoxic, single point]"
same,Potency,[12],inconclusive: 29.8 µM [activator]
CC(=O)Oc1ccc(C2(c3ccc(OC(C)=O)cc3)C(=O)Nc3ccccc32)cc1,Potency,[1],"inconclusive: 26.8 µM [rising, partial curve, poor fit]"
same,Potency,[2],inactive
same,activation,[6],inconclusive: 1.38%
same,Potency,[10],inactive
same,Potency,[11],inactive
same,Potency,[8],inconclusive: 33.5 µM
O=C(O)c1cccc(N(Cc2cccnc2)c2ccc(OC(F)F)c(OC(F)F)c2)c1,Potency,[1],"inconclusive: 38.9 µM [rising, partial curve, poor fit]"
same,Potency,[2],"inconclusive: 6.16 µM [rising, full curve]"
same,Potency,[6],"inconclusive: 48.6 µM [rising, partial curve]"
same,Potency,[10],"inconclusive: 12.3 µM [rising, partial curve]"
same,Potency,[8],"inconclusive: 6.16 µM [fluorescent, full curve]"
same,Potency,[5],"inconclusive: 8.71 µM [fluorescent, full curve, poor fit]"
C=CC(=O)OCCOC(=O)CCC(=O)O,Potency,[1],active: 54.9 µM
same,Potency,[2],inactive
same,Potency,[6],"inconclusive: 19.3 µM [falling, partial curve, poor fit]"
same,Potency,[10],"inconclusive: 49 µM [rising, partial curve, poor fit]"
same,Potency,[13],inactive
same,Potency,[11],"inconclusive: 2.45 µM [rising, partial curve, poor fit]"
same,Potency,[12],inactive
C(=C(c1ccccc1)c1ccccc1)c1ccccc1,Potency,[1],inactive
same,Potency,[2],"inconclusive: 54.9 µM [activator, single point]"
same,activation,[6],inconclusive: -0.113%
same,Potency,[3],"inconclusive: 54.9 µM [cytotoxic, single point]"
same,Potency,[14],inactive
OC[C@]1(O)OC[C@@H](O)[C@H](O)[C@@H]1O,Potency,[1],inactive
same,"ratio activity, negative = inhibition",[2],inconclusive: -19.6%
same,Potency,[6],inactive and inconclusive: 29.8 µM
same,Potency,[13],"inconclusive: 0.0247 µM [cytotoxic, full curve, poor fit]"
